Laboratory results reported in the supplement of paper PMC4166925.
± gives the standard deviation of the averaged measurements. In all, about 33,000 sequences were measured (“E-score (dimensionless, -0.5 to 0.5)”: median about -0.049, highest 2% from about 0.37 on). The list shows a part of the results.

System: T1, PmTbr T-box DNA-binding domain (GST fusion)
T1 sequence: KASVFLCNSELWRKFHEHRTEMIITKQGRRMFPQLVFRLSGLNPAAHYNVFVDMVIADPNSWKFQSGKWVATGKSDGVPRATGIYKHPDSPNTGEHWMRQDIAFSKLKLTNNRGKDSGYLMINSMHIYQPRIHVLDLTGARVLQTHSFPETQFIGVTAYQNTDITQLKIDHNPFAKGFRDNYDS
Experiment: PBM E-score of 8-mer (E-score (dimensionless, -0.5 to 0.5)); Tbr is Tbrain of the sea star Patiria miniata (Pm) or the sea urchin Strongylocentrotus purpuratus (Sp); higher = stronger binding preference; most listed sequences are background and not binding sites
Details: the construct has about 5 more residues each side
Method: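 Universal protein-binding microarray (Agilent AMADID 016060, 60-bp probes with a 35-bp variable region) incubated with 200 nM GST-fused Patiria miniata Tbr T-box DNA-binding domain (residues 272-466) in PBS pH 7.5. Scored for every ungapped 8-mer (given with its reverse complement) by the Universal PBM Analysis Suite as E-score (modified Wilcoxon-Mann-Whitney enrichment, range -0.5 to 0.5; >0.45 counts as bound) and Z-score of median probe intensity. Two replicate arrays (datasets 1 and 2).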
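Further: 200 nM protein in PBS on universal arrays averaged over duplicate arrays.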

Sequence	PBM E-score of 8-mer
CAGGTATG	0.0462 ± 0.043
AGTATTGG	-0.0858 ± 0.022
CGCTCGAC	0.0137 ± 0.026
TCGGATCA	-0.0895 ± 0.043
CTCCTGAC	-0.00639 ± 0.074
TACCAATA	-0.0615 ± 0.078
AAAAAGCA	0.158 ± 0.084
GAGTTCAC	0.263 ± 0.035
AAAGGATG	-0.167 ± 0.054
CCACATAG	0.00626 ± 0.033
AAAGTCAC	0.0946 ± 0.023
CCCCCTAA	-0.241 ± 0.019
TCACTACA	0.11 ± 0.0097
AGTCGGGC	-0.0257 ± 0.094
ACTGCTCC	-0.0798 ± 0.014
GGAGCTGA	-0.0874 ± 0.0083
AGGTTCAG	-0.0171 ± 0.05
CTTCCTCC	-0.2165 ± 0.00028
CTTAAAAA	0.037 ± 0.049
AACGCGTG	0.306 ± 0.01
CTAAGCTA	-0.249 ± 0.081
AAGTCACC	-0.0203 ± 0.083
AGAATTAT	-0.111 ± 0.053
ACGTCGGA	0.0795 ± 0.014
ACAGCTGA	0.0767 ± 0.025

Sequence	PBM E-score of 8-mer
CTGTGCCA	0.0393 ± 0.039
CGCTCCCG	-0.0981 ± 0.017
CATGGACG	-0.119 ± 0.07
CGCGCCGC	0.246 ± 0.001
ACCAACCC	-0.164 ± 0.011
CTGAACAA	-0.0764 ± 0.044
CTTAGATC	-0.0818 ± 0.021
CGAAATCG	0.231 ± 0.046
AAGGGTAA	-0.155 ± 0.0084
AAATCAGG	-0.229 ± 0.025
CCAGAGGA	-0.0404 ± 0.05
CCGAACGC	0.00566 ± 0.028
ACACGAGG	0.0826 ± 0.026
GATGGTCA	-0.26 ± 0.0048
TGCAAGAA	-0.0721 ± 0.033
CCTCCGAG	-0.0523 ± 0.035
GAATGGAA	-0.173 ± 0.041
GGATCGGA	-0.156 ± 0.065
CGTGTAGA	0.0938 ± 0.0091
CACGTCAC	0.286 ± 0.033
GGGATCCA	-0.0421 ± 0.0063
CGTACGGC	-0.206 ± 0.049
ATATAACG	0.046 ± 0.035
CAATATAA	0.0981 ± 0.026
TGCGAGCA	0.176 ± 0.073

Sequence	PBM E-score of 8-mer
CCCGAGAA	-0.0833 ± 0.01
ATACCCAG	-0.12 ± 0.057
ATTGAACA	-0.00966 ± 0.0099
AGGTGACG	0.4629 ± 0.0014
AAGAGTCG	-0.1406 ± 0.00026
ACGGCTAG	0.0288 ± 0.029
GGTGACTA	0.19 ± 0.03
CCTGATGC	-0.0675 ± 0.048
AACCCATT	-0.164 ± 0.021
ACTGTATG	0.0567 ± 0.041
CGGCCAGA	-0.215 ± 0.011
GGGTCCCA	-0.0792 ± 0.1
CCGGCACG	0.0606 ± 0.051
CGGCTAAG	-0.112 ± 0.019
AAAGCTAG	0.0329 ± 0.015
CTCGAGGC	-0.039 ± 0.098
CCCCGCAG	0.0651 ± 0.12
CCTCTATA	-0.0793 ± 0.0064
ACGAAAAA	0.0542 ± 0.081
CGCGCGTC	0.27 ± 0.0066
CGCAGCGA	0.0792 ± 0.034
ATATGAGG	0.00413 ± 0.077
ATTGTCGC	0.292 ± 0.024
GAAACGGA	-0.0173 ± 0.031
CGAAGCCC	-0.24 ± 0.015

Sequence	PBM E-score of 8-mer
GGCCACAA	-0.00403 ± 0.067
AAGCAGTG	-0.0981 ± 0.062
CGCAGGCC	-0.171 ± 0.036
GTGCACGA	0.0388 ± 0.068
CCTTCTCG	-0.0151 ± 0.074
GGAGTGAC	0.305 ± 0.014
CAGAGAGG	-0.215 ± 0.022
ATGATATG	0.00581 ± 0.036
GTCGAACA	0.0754 ± 0.019
ACTTTGAA	-0.0947 ± 0.082
CAGTAGTC	-0.308 ± 0.018
CACCGCTC	-0.0936 ± 0.025
ATAAGGGC	-0.242 ± 0.0041
ATCACCAC	0.15 ± 0.0054
ACTTAGCG	0.244 ± 0.017
AGGCAAAC	-0.0597 ± 0.05
CTGATATC	-0.122 ± 0.06
AATCTAAA	-0.0399 ± 0.05
AGATGAGA	-0.0493 ± 0.021
ACCCTGAT	-0.136 ± 0.025
ACAGAACT	-0.173 ± 0.056
AACGATGG	-0.0877 ± 0.044
AAGTCTAG	-0.131 ± 0.032
ACCATGAC	-0.101 ± 0.044
ATTTGACC	-0.282 ± 0.054

Sequence	PBM E-score of 8-mer
ACACAGTA	0.123 ± 0.057
AAGACAAC	0.00134 ± 0.031
GCAAGGAC	-0.0912 ± 0.024
GCACCTGA	0.391 ± 0.024
GCGGAAAA	-0.0264 ± 0.027
GACTGTTA	0.182 ± 0.077
TCTGCACA	0.0268 ± 0.042
AAGCAGGC	-0.00975 ± 0.047
CTGTTCCA	-0.0385 ± 0.054
TCGGCACA	0.166 ± 0.029
ACCCGGCT	-0.24 ± 0.0071
GACGGCCC	-0.0413 ± 0.0093
ATCATCCG	-0.16 ± 0.025
CCGAGTTA	-0.158 ± 0.044
ATGGGTGC	0.15 ± 0.017
CTTCGTGA	0.117 ± 0.044
AGGAGTCC	-0.319 ± 0.031
AAACACTC	0.181 ± 0.017
AGGATCTC	-0.135 ± 0.026
AGCACACA	0.0439 ± 0.003
CTGCACAA	-0.0665 ± 0.11
CAACCGAC	0.0468 ± 0.016
ACGCTCTG	-0.0658 ± 0.04
CCACCATA	-0.095 ± 0.013
ATTTGATG	-0.119 ± 0.0072

Sequence	PBM E-score of 8-mer
GTCTCCCA	-0.162 ± 0.037
ACGTTAAC	0.201 ± 0.029
CGAAGATA	0.0221 ± 0.037
ACATTCAC	0.251 ± 0.026
CATCCTTA	0.0522 ± 0.0077
AGAAGGGG	-0.0268 ± 0.057
CCTGCGCG	0.173 ± 0.017
CCGCCTCA	-0.0274 ± 0.023
CTCTTGGA	-0.206 ± 0.04
ATTGACTA	-0.317 ± 0.025
CCAGGGAG	-0.215 ± 0.037
GGCCGTCA	0.0329 ± 0.017
GAAATCTC	0.0395 ± 0.048
CGCAATAA	-0.0672 ± 0.051
ATGTGTGC	0.219 ± 0.016
CTTGCGGA	0.0704 ± 0.066
TAGTGCAA	0.267 ± 0.055
CATAACGA	-0.176 ± 0.016
ATCTAAGA	-0.318 ± 0.07
ACGTAACA	0.0723 ± 0.072
AAGGGAAC	-0.208 ± 0.072
ACGGCCGT	0.0556 ± 0.068
GGACCGAA	-0.15 ± 0.032
ATTACAGG	-0.115 ± 0.1
ATGACAGA	-0.0211 ± 0.00092

Sequence	PBM E-score of 8-mer
ACATATAA	-0.0564 ± 0.075
AACTACGT	-0.122 ± 0.092
GTTAGCCA	0.0261 ± 0.045
GCCGGCAC	0.15 ± 0.04
GGATGCAC	-0.117 ± 0.1
AGTTGGTC	-0.129 ± 0.036
ATTCGAAA	0.0548 ± 0.085
GGGGCCAC	-0.105 ± 0.045
CAACAGCG	0.09 ± 0.052
ACGCTCGG	-0.0371 ± 0.064
AACGCCCT	0.286 ± 0.0082
CGGAGGAG	0.0613 ± 0.045
GAGGGACC	-0.204 ± 0.011
CTTAAGTC	-0.115 ± 0.032
CAAATCGC	0.233 ± 0.027
AAAACGAT	-0.116 ± 0.0025
CAAGGAGA	-0.147 ± 0.071
ATTATACA	-0.23 ± 0.07
CCGAACCG	-0.243 ± 0.11
AGCGACAT	0.184 ± 0.018
GGCGGTGA	0.0517 ± 0.094
ACCTTTAC	0.161 ± 0.0072
